Assay results from PubChem BioAssay AID651820 (National Center for Advancing Translational Sciences (NCATS), 2012).
Values joined by “and” are separate entries in the source; they are usually repeats but may differ in a detail not shown here. Equal entries are not always repeated. Hit rate of the full screen: of about 340,000 compounds, about 12,000 (3.5%) were called active. The inconclusive results got no clear call from the source; some entries with a clear call stand among them for comparison. The call rests on the fitted dose curve; in most records, active means well fitted inhibition curve with a large enough effect; inconclusive means small, poorly fitted or top-dose-only effect, or another doubt; inactive means no such curve, though single readings can be large or run the other way. Where the call is inconclusive, the potency comes from a doubtful curve fit.

Assay: qHTS Assay for Inhibitors of Hepatitis C Virus (HCV)
Conditions: Huh7.5.1 HCVcc-Cre (HCVcc is cell-culture hepatitis C virus) infection, luciferase reporter, 44 h; series mostly up to 41.8 µM
Summary of the method: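 Reporter virus HCVcc-Cre (~0.5 moi) infects cells exposed to compound; seeding density 1,000 cells/well with 4 h settling beforehand. Luminescence, 15 sec read, taken 44 h post-infection following a 15 min RT substrate incubation.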
Potency means the concentration at half of the fitted maximal effect; tags describe the fitted curve by direction and shape.

SMILES | Potency
Nn1c(=O)[nH]c2c([nH]c3ccccc32)c1=O | inactive
O=C(COc1ccccc1[N+](=O)[O-])NCC1COc2ccccc2O1 (centres undefined) | inconclusive: 0.501 µM [inhibitor, full curve, poor fit]
Cc1ccc(/C=C/C(=O)NCCCN2CCN(CCCNC(=O)/C=C/c3ccc(C)o3)CC2)o1 | inactive
O=C(N/N=C/c1cc(O)ccc1[N+](=O)[O-])c1ccc2c(c1)OCCO2 | inactive
COc1ccc(Nc2nc(-c3ccccc3O)nc3ccccc23)cc1 | inconclusive: 31.6 µM [inhibitor, single point]
COc1cccc(/C=C2\CCC(C3CCCC3)C2=O)c1 (centres undefined) | inconclusive: 3.16 µM [inhibitor, single point]
Cc1ccc(NC(=S)NCCc2ccccc2)nc1 | inconclusive: 22.4 µM [inhibitor, single point]
CCOc1cc(/C=N/NC(=O)c2ccc(N(C)S(=O)(=O)c3ccccc3)cc2)ccc1OC | active: 8.91 µM
Cc1ccccc1N1C(=O)C2C3C=CC(CC3)C2C1=O (centres undefined) | inactive
CCOCCCNC(=O)/C(C#N)=C/c1cc(C)c(O)c(C)c1 | inconclusive: 22.4 µM [inhibitor, single point]
CCn1cc(S(=O)(=O)c2ccc(Cl)cc2)c(=O)c2cc(OC)ccc21 | inconclusive: 31.6 µM [inhibitor, single point]
Cc1ccc(NC(=O)Nc2ncnc3nc[nH]c23)cc1 | inactive
COc1ccccc1/C=C(/C(=O)OCC(=O)N(C)Cc1ccccc1)c1ccccc1 | inconclusive: 22.4 µM [inhibitor, single point]
CC(C)CC(=O)N1CCN(Cc2ccc(Br)cc2)CC1 | inactive
Cc1c(OCC(=O)NC2CCN(Cc3ccccc3)CC2)ccc2c3c(c(=O)oc12)CCC3 | inactive
CCc1ccccc1NC(=O)CN(C)C(=O)CSc1nc2cc(Cl)ccc2s1 | inconclusive: 2.51 µM [inhibitor, full curve, poor fit]
CCn1c(=S)sc2c(=O)n(CC(=O)Nc3cccc(Cl)c3)c(C)nc21 | inconclusive: 10 µM [inhibitor, partial curve]
CCN(CC)S(=O)(=O)c1ccc(Nc2ccc(-c3ccc4c(c3)OCCO4)nn2)cc1 | inconclusive: 3.16 µM [inhibitor, partial curve]
Cc1cc(C)cc(NC(=O)C2C3C=CC4(O3)C2C(=O)N(CCN2CCCCC2)C4C(=O)NC2CCCCC2)c1 (centres undefined) | inactive
O=C(c1cccc(C(F)(F)F)c1)C1CCCN(C(=O)c2cc(C3CC3)[nH]n2)C1 (centres undefined) | inconclusive: 10 µM [inhibitor, partial curve]
C=CCOC(=O)C1=C(C)Nc2ncnn2C1c1cccs1 (centres undefined) | inactive
COc1c(C)cc(Br)cc1C(=O)Nc1cccc(NC(=O)c2ccco2)c1 | active: 6.31 µM
CCC1CCCCN1S(=O)(=O)c1ccccc1[N+](=O)[O-] (centres undefined) | inconclusive: 11.2 µM [inhibitor, single point]
CCOc1cc(/C=C2/SC(=S)NC2=O)ccc1OC(=O)c1ccco1 | active: 3.55 µM
CCOc1ccc(-c2nnn(CC(=O)c3ccc4c(c3)OCCO4)n2)cc1OCC | inconclusive: 3.55 µM [inhibitor, full curve, poor fit]

SMILES | Potency
COc1ccc(OCC(=O)O/N=C(\N)c2ccc(OC)cc2)cc1 | inconclusive: 11.2 µM [inhibitor, partial curve, poor fit]
CCOC(=O)c1c(NC(=S)NC)sc2c1CC(C)(C)SC2 | inconclusive: 31.6 µM [inhibitor, single point]
CN(Cc1nccs1)C(=O)C1CCC(=O)N(CCc2ccc(Cl)cc2)C1 (centres undefined) | inactive
CCN(CC)c1ccc(C(=O)Nc2cccc(F)c2)cc1 | active: 10 µM
O=C(NCC1CCCCC1)C12CN(Cc3ccccc3)CC1C(c1cccc([N+](=O)[O-])c1)=NO2 (centres undefined) | inactive
CN(C)CCn1c2c(c(SCC(=O)Nc3cccc4ccccc34)nc1=O)CCC2 | inactive
Cc1cc(Br)ccc1NC(=O)CNC(=O)CN(C)C1CCS(=O)(=O)C1 (centres undefined) | inactive
CCOC(=O)c1ccc(N2C(=O)CC(Sc3nc(C)cc(C)n3)C2=O)cc1 (centres undefined) | inactive
CSC1CCCCC1(O)CSc1nc2c(cc1C#N)CCCC2 (centres undefined) | inconclusive: 5.01 µM [inhibitor, full curve]
O=C1Nc2ccc(S(=O)(=O)N3CCCC3)c3cccc1c23 | inconclusive: 22.4 µM [inhibitor, single point]
COc1cccc(CNc2ncnc3cc(Cl)ccc23)c1 | active: 11.2 µM
Cc1sc(NC(=O)CSC2=NCCS2)nc1-c1ccccc1 | inconclusive: 31.6 µM [inhibitor, partial curve]
O=C1Cc2c(-c3ccccc3)cc(-c3cccc(Cl)c3)nc2-c2ccccc2N1 | inconclusive: 31.6 µM [inhibitor, single point]
c1ccc(CCNCc2ccccc2)cc1 | inactive
COc1ccc(-c2cc(C(F)(F)F)nc(S(C)(=O)=O)n2)cc1OC | active: 10 µM
S=C(NCc1ccc2c(c1)OCO2)Nc1ccc(-c2nc3ccccc3[nH]2)cc1 | inconclusive: 31.6 µM [inhibitor, single point]
NC(=S)NN=C1C2CC3CC(C2)CC1C3 | inactive
CC(O)(C#CCN1CCCCC1)c1ccccc1 (centres undefined) | inactive
COc1ccc([C@H]2CC(=O)C=C(c3cccc4c3Oc3ccccc3S4)C2)cc1 | inconclusive: 10 µM [inhibitor, single point]
CCCCCn1c(SCC2CCCO2)nc2cc(C(=O)N3CCC(C(N)=O)CC3)ccc2c1=O (centres undefined) | inconclusive: 7.08 µM [inhibitor, partial curve, poor fit]
COc1ccccc1CNC(=O)CCNS(=O)(=O)/C=C/c1ccc(C)cc1 | inactive
C#CCSc1nccc(-c2nn(-c3ccc(C)cc3)ccc2=O)n1 | inconclusive: 10 µM [inhibitor, partial curve]
CCOc1ccc(C(=O)Nc2nccs2)cc1[N+](=O)[O-] | inconclusive: 5.62 µM [inhibitor, partial curve]
Cn1c(C(=O)NCCCN2CCN(c3cccc(Cl)c3)CC2)cc2c(=O)n(C)c3ccccc3c21 | inconclusive: 2.24 µM [inhibitor, full curve] and inconclusive: 2.82 µM [inhibitor, full curve]
